Common to all, as to assay: co-IP; HeLa lysates in 1% DMNG, 50 mM Tris-HCl pH 7.5, 150 mM NaCl, 4 °C; anti-HA, anti-FLAG or anti-V5 magnetic beads 2 h; washes in 0.1% DMNG; immunoblot; parental cells, CTDNEP1 KO cells, or MAN1 KO cells expressing V5-MAN1 derivatives; without or with 1 h TGF-β3 (20 ng/ml) or BMP
Assay [1] addresses T1, CTDNEP1-FLAG (CTDNEP1 fused to a triple FLAG epitope tag) (UniProt O95476).
T1 sequence: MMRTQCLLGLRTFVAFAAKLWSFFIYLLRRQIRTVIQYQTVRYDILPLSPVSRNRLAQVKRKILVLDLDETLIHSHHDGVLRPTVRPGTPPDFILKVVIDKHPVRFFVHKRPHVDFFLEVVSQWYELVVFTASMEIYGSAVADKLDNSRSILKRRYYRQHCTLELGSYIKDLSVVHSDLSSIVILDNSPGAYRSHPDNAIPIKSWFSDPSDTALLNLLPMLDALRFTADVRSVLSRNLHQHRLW

Amino acid sequences for entries named in this document (tags omitted).
UniProt Q13485: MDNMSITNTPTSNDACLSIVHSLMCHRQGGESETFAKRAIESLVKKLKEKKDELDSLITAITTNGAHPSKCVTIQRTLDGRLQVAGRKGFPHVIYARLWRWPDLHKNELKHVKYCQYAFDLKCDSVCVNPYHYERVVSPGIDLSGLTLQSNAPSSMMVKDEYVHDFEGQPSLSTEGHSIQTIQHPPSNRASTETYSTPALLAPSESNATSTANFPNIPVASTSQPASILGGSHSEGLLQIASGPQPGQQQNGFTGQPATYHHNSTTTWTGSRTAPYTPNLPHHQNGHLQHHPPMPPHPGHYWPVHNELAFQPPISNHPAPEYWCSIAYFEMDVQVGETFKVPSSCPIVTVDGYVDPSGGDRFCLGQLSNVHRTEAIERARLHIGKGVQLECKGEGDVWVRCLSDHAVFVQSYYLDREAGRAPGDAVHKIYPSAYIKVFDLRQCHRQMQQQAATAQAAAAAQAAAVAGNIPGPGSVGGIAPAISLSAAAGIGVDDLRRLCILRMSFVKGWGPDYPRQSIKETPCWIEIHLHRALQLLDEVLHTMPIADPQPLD
UniProt O94901: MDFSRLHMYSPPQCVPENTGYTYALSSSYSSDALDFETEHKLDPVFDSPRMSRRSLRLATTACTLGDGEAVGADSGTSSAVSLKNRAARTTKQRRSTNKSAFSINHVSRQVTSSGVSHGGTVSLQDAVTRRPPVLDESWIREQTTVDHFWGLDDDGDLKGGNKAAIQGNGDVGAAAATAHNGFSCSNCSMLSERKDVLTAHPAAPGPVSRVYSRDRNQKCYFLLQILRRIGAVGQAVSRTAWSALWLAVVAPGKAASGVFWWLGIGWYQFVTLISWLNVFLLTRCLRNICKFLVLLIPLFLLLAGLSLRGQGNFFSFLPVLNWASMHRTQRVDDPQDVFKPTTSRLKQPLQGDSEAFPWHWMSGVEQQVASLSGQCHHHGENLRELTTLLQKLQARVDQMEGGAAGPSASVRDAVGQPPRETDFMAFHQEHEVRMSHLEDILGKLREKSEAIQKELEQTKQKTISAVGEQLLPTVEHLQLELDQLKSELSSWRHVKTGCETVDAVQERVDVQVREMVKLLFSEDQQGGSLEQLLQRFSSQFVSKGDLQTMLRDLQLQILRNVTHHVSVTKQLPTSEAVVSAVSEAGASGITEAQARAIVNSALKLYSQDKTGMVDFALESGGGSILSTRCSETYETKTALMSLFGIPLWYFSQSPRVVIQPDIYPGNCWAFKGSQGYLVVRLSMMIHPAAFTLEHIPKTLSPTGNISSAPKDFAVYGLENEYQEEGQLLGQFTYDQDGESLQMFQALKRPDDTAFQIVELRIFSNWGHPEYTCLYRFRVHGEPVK

Assay [2] has as its target T2, NEP1R1-HA (NEP1R1 fused to an HA epitope tag) (UniProt Q8N9A8).
T2 sequence: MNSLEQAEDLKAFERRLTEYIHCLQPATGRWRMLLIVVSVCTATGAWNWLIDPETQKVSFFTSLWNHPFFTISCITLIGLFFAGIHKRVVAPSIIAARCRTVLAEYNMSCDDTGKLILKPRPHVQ

Assay [3] has as its target T3, V5-MAN1 (V5-tagged MAN1) (UniProt Q9Y2U8).
T3 sequence: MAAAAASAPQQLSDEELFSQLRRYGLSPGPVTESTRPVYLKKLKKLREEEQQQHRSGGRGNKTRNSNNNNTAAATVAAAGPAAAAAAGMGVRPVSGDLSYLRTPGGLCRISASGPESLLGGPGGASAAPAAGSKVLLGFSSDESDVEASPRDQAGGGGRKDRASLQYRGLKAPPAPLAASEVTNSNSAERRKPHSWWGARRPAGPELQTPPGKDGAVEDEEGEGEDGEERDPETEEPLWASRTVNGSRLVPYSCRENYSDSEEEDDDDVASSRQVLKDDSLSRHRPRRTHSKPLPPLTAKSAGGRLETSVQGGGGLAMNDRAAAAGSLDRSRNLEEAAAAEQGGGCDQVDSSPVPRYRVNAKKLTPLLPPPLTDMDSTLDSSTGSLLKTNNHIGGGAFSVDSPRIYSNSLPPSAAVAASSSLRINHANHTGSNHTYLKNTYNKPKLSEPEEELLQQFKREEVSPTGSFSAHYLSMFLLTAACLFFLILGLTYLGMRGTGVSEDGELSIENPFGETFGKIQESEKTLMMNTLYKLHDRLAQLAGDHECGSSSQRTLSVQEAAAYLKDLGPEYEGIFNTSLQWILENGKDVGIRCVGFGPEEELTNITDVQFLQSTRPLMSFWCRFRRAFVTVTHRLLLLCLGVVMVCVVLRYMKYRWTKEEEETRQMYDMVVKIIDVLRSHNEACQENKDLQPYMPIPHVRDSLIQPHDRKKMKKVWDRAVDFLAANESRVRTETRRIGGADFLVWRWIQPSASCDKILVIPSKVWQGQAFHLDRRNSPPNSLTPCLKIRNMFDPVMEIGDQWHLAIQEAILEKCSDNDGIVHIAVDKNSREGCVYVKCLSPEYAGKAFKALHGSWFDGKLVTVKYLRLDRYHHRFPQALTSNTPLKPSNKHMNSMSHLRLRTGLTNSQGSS

Assay [4] concerns the target T2, NEP1R1-HA (NEP1R1 fused to an HA epitope tag). The source holds these as a separate data set.
In assay [5] the target is T3, V5-MAN1 (V5-tagged MAN1). This is another data set of the same source.
In a further assay the target is T4, V5-tagged MAN1ΔC (UniProt Q9Y2U8).
T4 sequence: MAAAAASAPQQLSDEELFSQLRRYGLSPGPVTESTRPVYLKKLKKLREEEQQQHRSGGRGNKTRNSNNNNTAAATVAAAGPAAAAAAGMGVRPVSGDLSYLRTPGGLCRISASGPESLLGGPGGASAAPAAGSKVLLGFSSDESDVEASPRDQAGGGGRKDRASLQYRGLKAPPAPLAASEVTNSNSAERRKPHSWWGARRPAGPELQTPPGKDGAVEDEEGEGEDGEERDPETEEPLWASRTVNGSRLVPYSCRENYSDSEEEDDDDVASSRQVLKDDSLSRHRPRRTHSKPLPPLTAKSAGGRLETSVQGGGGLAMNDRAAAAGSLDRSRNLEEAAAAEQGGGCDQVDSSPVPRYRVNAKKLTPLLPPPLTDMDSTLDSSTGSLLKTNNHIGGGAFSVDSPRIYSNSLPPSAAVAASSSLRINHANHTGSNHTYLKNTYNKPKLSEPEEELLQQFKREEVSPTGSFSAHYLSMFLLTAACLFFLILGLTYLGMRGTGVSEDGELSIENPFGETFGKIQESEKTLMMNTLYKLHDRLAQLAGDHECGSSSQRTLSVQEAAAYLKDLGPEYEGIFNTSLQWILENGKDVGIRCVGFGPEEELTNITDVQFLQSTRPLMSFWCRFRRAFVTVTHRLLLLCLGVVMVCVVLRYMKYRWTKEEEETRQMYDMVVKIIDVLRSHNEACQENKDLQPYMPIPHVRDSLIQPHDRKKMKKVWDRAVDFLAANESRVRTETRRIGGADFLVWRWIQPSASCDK

Like-named read-outs stand apart in the source and are kept apart here. Results are given in words; binding and its absence hold for the method and conditions named. Binding seen in cells or lysates may run through a third protein. Some entries that bind do so weakly or less than the wild type. Where a sequence is shown, tags or fusion partners need not be part of it.

SMAD4 (from UniProt Q13485 1-552): the binding entry in assay [1] and in assay [2] was “no binding” throughout. With SUN1 (from UniProt O94901 1-785), the binding result (in assay [1]; in assay [2]; in the assay with V5-MAN1 (V5-tagged MAN1) [3]) was “no binding” in each case.

B1: endogenous CTDNEP1 (enzyme, UniProt O95476 1-244)
chain: T1 sequence
As for B1, the binding result in assay [4] is listed as “binds”.

B2: endogenous MAN1 (protein, UniProt Q9Y2U8 1-911)
chain: T3 sequence
As to B2, the binding result in assay [4] is listed as “binds”.

B3: V5-MAN1 (V5-tagged MAN1) (protein, UniProt Q9Y2U8 1-911)
chain: T3 sequence
For the molecule B3, the binding result in assay [4] is “binds”.

B4: V5-tagged MAN1ΔC (domain or fragment, UniProt Q9Y2U8 1-756)
chain: T4 sequence
For B4, the binding entry in assay [4] is recorded as “binds”.

B5: NEP1R1-HA (NEP1R1 fused to an HA epitope tag) (protein, UniProt Q8N9A8 1-125)
chain: T2 sequence
B5: the binding entry in the assay with V5-MAN1 (V5-tagged MAN1) [5] and with V5-tagged MAN1ΔC was “binds” in each case.

Values taken from article PMC11992160.
